PubChem BioAssay AID1963576 (National Center for Advancing Translational Sciences (NCATS), 2024)
The whole screen tested about 46,000 compounds, of which about 60 (0.1%) were called active. Inconclusive results (about 3%) are left out. The call rests on the fitted dose curve; in most records, active means well fitted inhibition curve with a large enough effect; inconclusive means small, poorly fitted or top-dose-only effect; inactive means no such curve, though single readings can be large or run the other way. The list shows a part of the results.

Experiment: Primary qHTS assay for Inhibitors of ovarian cancer metastasis using an organotypic tumor microenvironment (TME) model. Further: nearly all actives have a fitted effect of over 65% in size.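 On activity change, negative = inhibition: plate controls were DMSO wells for no effect and tomatine positive control wells for full effect.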
Settings: SKOV3ip1-GFP adhesion/invasion on 3D omental model, fluorescence; series mostly up to 45.8 µM; activity change, negative = inhibition: at the top concentration
In short: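 Adhesion/invasion was scored as fixed GFP-labeled SKOV3ip1 cell counts (488/509 nm), normalized to DMSO and tomatine controls. Cancer cells in serum-free medium, with four compound doses (0.36-46 umol/L), sat 2 hr at RT then 16 hr at 37 C on a 48 hr fibroblast/mesothelial/ECM culture.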

SMILES | outcome | activity change, negative = inhibition
Cc1ccc(NC(=O)CSc2nncn2C)c(C)c1 | inactive | 
O=C(Nc1cc(F)ccc1F)C1CCN(C(=O)c2cnn(-c3ccccc3)c2-n2cccc2)CC1 | inactive | 
COc1ccc(S(=O)(=O)c2cn(C)c3cc(N4CCCCCC4)c(F)cc3c2=O)cc1 |  | inactive: 2.89%
COc1ccc(-c2noc(-c3nnn(-c4ccc(C)cc4C)c3C)n2)cc1 |  | inactive: 10.9%
COc1ccc(NC(=O)CSC2=Nc3ccccc3C3=NC(CCC(=O)NC4CCCCC4)C(=O)N23)cc1Cl (stereo not given) |  | inactive: 7.81%
Cc1ccc(-n2nc(CO)c(C(=O)NCc3cccnc3)n2)cc1C |  | inactive: -3.85%
CCOc1ccccc1CNS(=O)(=O)c1ccc(-c2cnc(C3CC3)o2)cc1 |  | inactive: -7.38%
CCOC(=O)c1cc(NC(=O)c2ccccc2)c(=O)n2c1oc1ccc(Cl)cc12 | inactive | 
COc1ccc(OC)c(C2CC(=O)Nc3c2c(=O)n(C)c2ncnn32)c1 (stereo not given) |  | inactive: 6.84%
COc1ccccc1NC(=O)CSCc1cc(=O)c2cccc(Cl)c2[nH]1 |  | inactive: 2.11%
COc1ccc(Cl)c2sc(NC(=O)c3ccc(S(=O)(=O)N4CCCC4)cc3)nc12 | inactive | 
CCOC(=O)c1c(-c2ccccc2)oc2ccc(NS(=O)(=O)c3ccc(C)cc3)cc12 |  | inactive: 2.82%
CCc1ccc2occ(CC(=O)Nc3c(C(=O)c4ccccc4)oc4ccccc34)c2c1 |  | inactive: 3.95%
COc1ccccc1Cn1c(C2CC(=O)N(c3ccccc3OC)C2)nc2ccccc21 (stereo not given) | inactive | 
O=C(CSC1=Nc2ccccc2C2=NC(Cc3ccccc3)C(=O)N12)Nc1cccc(Cl)c1 (stereo not given) |  | inactive: 1.02%
Cc1ccc(CNC(=O)c2cc3sc(Cl)cc3n2C)cc1 |  | inactive: 5.32%
Cc1ccnc(NC(c2cccc(O)c2)c2ccc3ccc(C)nc3c2O)c1 (stereo not given) |  | inactive: -2.66%
COc1ccccc1N1CCN(S(=O)(=O)c2cc(C(=O)Nc3ccc(Oc4ccccc4)cc3)ccc2F)CC1 |  | inactive: 13.1%
COc1cccc(NC(=O)c2cnc(SCC(=O)N3CCCc4ccccc43)n(C)c2=O)c1 | inactive | 
CC(C)CCNC(=O)CCCn1c(=O)c2cccn2c2ccccc21 | inactive | 
Cc1cccc(CS(=O)(=O)Cc2ccc(C(=O)NCc3ccc(F)cc3)o2)c1 |  | inactive: 14.9%
O=C(Cn1c(=O)n(-c2ccccc2)c(=O)c2c3c(sc21)CCC3)c1ccc(Br)cc1 |  | inactive: 6.14%
Cc1ccc2nc(-c3ccc(Cl)c(NC(=O)COc4ccc([N+](=O)[O-])cc4)c3)oc2c1 |  | inactive: -0.683%
CCOC(=O)c1c(C)oc2ccc(N(C(=O)c3ccncc3)S(=O)(=O)c3ccc(F)cc3C)cc12 |  | inactive: 8.7%

SMILES | outcome | activity change, negative = inhibition
Cc1noc(-c2ccc(-c3noc(-c4ccc(Cl)cc4)n3)cc2)n1 |  | inactive: 8.15%
CCN(C(=O)c1cc2c(=O)oc3ccccc3c2s1)c1ccccc1F |  | inactive: 16.7%
COc1ccccc1NC(=O)CSc1nnc2c(n1)[nH]c1ccccc12 | inactive | 
CCOC(=O)c1ccc(Nc2c(-c3ccc(N(C)C)cc3)nc3nc[nH]n23)cc1 |  | inactive: 1.55%
O=C(CN1C(=O)CCc2cc(Br)ccc21)Nc1ccc(OC(F)(F)F)cc1 |  | inactive: -3.94%
Cc1cc(C)cc(NC(=O)CN2C(=O)c3ccccc3Sc3ccc(C(=O)N4CCCC4)cc32)c1 |  | inactive: 2.62%
Cc1ccc(C)c(CN2CCCN(Cc3ccccc3C)S2(=O)=O)c1 | inactive | 
COc1ccc(Cn2c(=O)n(-c3ccc(C)cc3)c(=O)c3c2c2cc(C)ccc2n3C)cc1 |  | inactive: 11.8%
COc1ccc(NC(=O)c2cnc3cc(C)ccn3c2=O)c(OC)c1 |  | inactive: -3.02%
COc1cccc(CNC(=O)c2nn(C)c3c2CSc2ccccc2-3)c1 |  | inactive: -9.24%
COc1ccccc1Cc1nc2ccccc2nc1SCC(=O)NCc1ccc(C)cc1 |  | inactive: -15.7%
COc1ccc(C)cc1NC(=O)Cn1nc(N2CCN(c3ccccc3OC)CC2)ccc1=O |  | inactive: 0.821%
COc1ccc(-c2nc(SCC(=O)NC3CCCC3)c(-c3ccc(F)cc3)[nH]2)cc1OC | inactive | 
O=C(COCc1cc(-c2ccco2)on1)Nc1cc(Cl)ccc1O |  | inactive: -7.98%
Cc1noc(C)c1S(=O)(=O)N(CC(=O)NCc1ccccc1)c1ccc(C(C)C)cc1 |  | inactive: 0.79%
COc1ccccc1CNC(=O)C(=O)NCC(c1cccnc1)N1CCN(c2ccccc2)CC1 (stereo not given) |  | inactive: -2.18%
CC1CCN(C(c2ccc(F)cc2)c2sc3nc(-c4ccco4)nn3c2O)CC1 (stereo not given) |  | inactive: -0.286%
COc1ccc(CC(=O)N2CCc3c([nH]c4ccccc34)C2c2ccc(SC)cc2)cc1 (stereo not given) |  | inactive: 2.75%
COCCNC(=O)CCn1nc(-c2ccc(Cl)cc2)c2ccccc2c1=O |  | inactive: 10.5%
CC(=O)N1CCCc2cc(S(=O)(=O)Nc3ccc(Cl)cc3F)ccc21 |  | inactive: 1.38%
O=C(Nc1ccc2oc(-c3cccnc3)nc2c1)c1ccccc1F | inactive | 
CCc1ccc(-n2c(N3CCN(c4ccc(F)cc4)CC3)nc3ccccc3c2=O)cc1 |  | inactive: 0.0461%
COc1ccc(NC(=O)C(NC(=O)/C=C\c2ccc3c(c2)OCO3)c2ccc(C)cc2)cc1 (stereo not given) |  | inactive: 5.92%
O=C(c1ccc2c(c1)N(Cc1ccccc1)C(=O)c1ccccc1S2(=O)=O)N1CCOCC1 |  | inactive: -9.47%

SMILES | outcome | activity change, negative = inhibition
COc1ccc(C(=O)N2CCN(C(=O)COc3ccccc3)CC2)cc1OC |  | inactive: 3.49%
COc1ccc(-c2nc3ccccc3s2)cc1NC(=O)c1cc(OC)c(OC)c(OC)c1 |  | inactive: 2.58%
Cc1cc(S(=O)(=O)Nc2cc3c(cc2N2CCOCC2)n(C)c(=O)c(=O)n3C)ccc1F |  | inactive: -3.53%
O=C(Nc1cccc(Br)c1)c1cc(S(=O)(=O)N2CCCCC2)c[nH]1 | inactive | 
COc1ccc(-c2nc3n(n2)C(c2ccc(O)cc2)C(C(=O)Nc2cccnc2)=C(C)N3)cc1OC (stereo not given) |  | inactive: 7.07%
Cc1csc2nc(COc3ccc(NC(=O)c4ccccc4F)cc3)cc(=O)n12 |  | inactive: -0.875%
COc1ccc(C(=O)Nc2nc(-c3ccc(Br)cc3)ns2)cc1 |  | inactive: -4.02%
Cc1nn(Cc2ccccc2Cl)c(C)c1CN(C)CC(O)COc1ccc(Cl)cc1 (stereo not given) |  | inactive: 9.37%
CCCn1c2ccccc2c2cnn(CC(=O)NCC3CCN(Cc4ccccc4C)CC3)c(=O)c21 |  | inactive: -16.7%
COc1ccccc1CNc1nccn(-c2ccc(F)cc2)c1=O |  | inactive: 0.611%
COC(=O)CN1C(=O)C(O)(c2c(C)[nH]c3ccccc23)c2ccccc21 (stereo not given) |  | inactive: 2.66%
CCOc1ccc(CCNC(=O)NCc2noc3ccc(C)cc23)cc1 |  | inactive: -4.04%
CCCNC(=O)c1ccc(Cn2c(SCC(=O)NC(C)C)nc3ccccc3c2=O)cc1 |  | inactive: -11.1%
Cc1cccc(C(=O)N2CCc3cc(CNC(=O)c4ccco4)ccc32)c1 | inactive | 
CCOCCc1nn2c(=O)cc(COC(=O)c3ccc(NC(=O)c4cccs4)cc3)nc2s1 |  | inactive: -6.58%
CCOC(=O)c1c(NC(=O)c2ccc(S(=O)(=O)N3CCCC(C)C3)cc2)sc2c1CC(C)(C)NC2(C)C (stereo not given) | inactive | 
CCOCCCN1C(=O)CN(C2CCCCCC2)C(=O)C1c1ccc(OCC)c(OC)c1 (stereo not given) | inactive | 
Cc1ccc(C(=O)c2oc3ccccc3c2NC(=O)c2cc(-c3ccccc3)on2)cc1 |  | inactive: -1.19%
Cc1ccc(-n2ncc3c(Nc4ccc5c(c4)OCCO5)ncnc32)cc1Cl |  | inactive: -7.29%
O=C(NC1CC(=O)N(c2ccc(F)cc2)C1)c1ccc(S(=O)(=O)N2CCOCC2)cc1 (stereo not given) |  | inactive: -4.37%
COc1ccc(S(=O)(=O)NCCc2sc(-c3cccnc3)nc2C)cc1 | inactive | 
Cn1c(=O)c2c(-c3ccccc3)n3c(c2n(C)c1=O)C(c1ccc([N+](=O)[O-])cc1)Nc1ccccc1-3 (stereo not given) |  | inactive: -3.76%
COc1ccc(NC(=O)Cn2c(=O)c3cccn3c3ccccc32)cc1 |  | inactive: 13.3%
Cc1ccc(C(C)C)c(OCC(=O)Nc2ccc3c(c2)nc(CCNC(=O)c2ccco2)n3C)c1 |  | inactive: -0.645%

SMILES | outcome | activity change, negative = inhibition
O=C(O)CCC(=O)N1CCc2cc(S(=O)(=O)NCc3ccc(F)cc3)ccc21 |  | inactive: 1.57%
COc1ccc(NC(=O)c2cccc3c(=O)c4c([nH]c23)CCCC4)cc1 |  | inactive: 20.7%
CCOC(=O)c1[nH]c(C)c(CCC(=O)N2CCN(c3ccc(OC)cc3)CC2)c1C |  | inactive: -0.41%
CCOC(=O)C1CCN(C(=O)C2CCN(S(=O)(=O)c3c(C)noc3/C=C/c3ccc(C)cc3)CC2)CC1 |  | inactive: 14.4%
CCSc1nc(-c2ccccc2)nc2c1Cc1c(CO)cnc(C)c1O2 |  | inactive: -9.83%
CCCCN(C)S(=O)(=O)c1ccc(C(=O)Nc2sc3c(c2C(=O)OCC)CCN(C(C)C)C3)cc1 | inactive | 
COc1ccc(CCNC(=O)c2ccc3c(c2)N(Cc2ccccc2Cl)C(=O)c2ccccc2S3)cc1OC |  | inactive: -8.34%
CCOC(=O)c1c(NC(=O)Nc2ccc(F)cc2)sc(C(=O)N(C)C)c1C | inactive | 
Cc1ccccc1Cn1nnc2sc3c(c2c1=O)CCCC3 | inactive | 
CCOC(=O)c1cc2c(=O)n3ccccc3nc2n(CC2CCCO2)c1=NC(=O)c1cccc(C)c1 (stereo not given) |  | inactive: -12.1%
O=C(COc1ccccc1F)Nc1nnc(SCc2cc(=O)n3ccccc3n2)s1 |  | inactive: -27.2%
COc1ccc(C(=O)NCCc2csc(-c3ccc(Cl)cc3)n2)cc1 | inactive | 
Cc1ccc(CN2c3ccccc3-c3nc(SCC(=O)NCc4ccccc4)ncc3S2(=O)=O)cc1 |  | inactive: -1.97%
O=C(CS(=O)(=O)c1cccc2nsnc12)NCc1ccccc1Cl |  | inactive: 32.1%
COc1ccc(-c2cccc(NS(=O)(=O)c3cc(C(F)(F)F)ccc3Cl)c2)nn1 |  | inactive: -1.11%
COc1ccc(-n2cc(-c3ccccc3)c3c(N4CCCC(C)C4)ncnc32)cc1 (stereo not given) | inactive | 
CCc1nc2ccc(C(=O)NCc3ccccc3C)cc2nc1CC |  | inactive: 19.9%
Cn1cc(CCCC(=O)NCc2cccc(Br)c2)c2ccccc21 | inactive | 
Cc1ccc(N(CC(=O)Nc2ccc(F)cc2F)S(=O)(=O)c2cccs2)cc1 | inactive | 
Cc1ccc(S(=O)(=O)NCCc2nnc3ccc(SCc4ccccc4F)nn23)cc1 |  | inactive: 5.75%
Cc1cccc(N2CCN(C(=O)C(C)n3nc(C)n4c(cc5occc54)c3=O)CC2)c1C (stereo not given) | inactive | 
Cc1cc(C)c(NC(=O)c2c(C)oc3c2C2=NCCN2C=N3)c(C)c1 | inactive | 
Cc1cc(C)c(NC(=O)CN2C(=O)C3(SCC(=O)N3c3ccc(F)cc3)c3ccccc32)c(C)c1 (stereo not given) |  | inactive: 1.31%
